Reference: the supplement of paper PMC9446081
Out of some 39,000 compounds screened, about 220 (0.56%) showed activity. Some of the results follow.

The compounds below were run on Escherichia coli K-12 BW25113 (assay: relative growth (OD600 normalised to plate interquartile mean) (fraction); higher = less growth inhibition, active = 0.2 or less). Conditions: 50 µM; LB; incubation time: overnight (16-24 h).
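Note: static incubation at 37 °C against the wild-type strain, values averaged over two biological replicates.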

Row | SMILES | relative growth
1 | O=C(C[C@H]1CC[C@H]2[C@@H](COC[C@H](O)CN2S(=O)(=O)c2cccc(Cl)c2)O1)N1CCOCC1 | inactive: 1
2 | C[C@H]1CN([C@@H](C)CO)S(=O)(=O)c2ccc(-c3cccnc3)cc2O[C@H]1CN(C)C(=O)c1ccc2c(c1)OCO2 | inactive: 0.992
3 | C[C@H]1CN([C@@H](C)CO)C(=O)c2cc(NS(=O)(=O)c3ccc(F)cc3)ccc2O[C@@H]1CN(C)C(=O)Nc1cccc2ccccc12 | inactive: 1.01
4 | CC(C)NC(=O)N[C@@H]1C=C[C@H](CC(=O)NCCCN(C)C)O[C@H]1CO | inactive: 0.971
5 | C[C@H]1CCCCO[C@H](CN(C)C(=O)CCC(F)(F)F)[C@@H](C)CN([C@@H](C)CO)C(=O)c2cc(NC(=O)c3ccccc3)ccc2O1 | inactive: 0.976
6 | C[C@H](CO)N1C[C@H](C)[C@H](CN(C)Cc2ccc3c(c2)OCO3)Oc2ccc(NS(=O)(=O)c3cn(C)cn3)cc2C1=O | inactive: 0.987
7 | CN(C)CCO[C@@H]1CC[C@@H]2[C@H]1OCCN2S(C)(=O)=O | inactive: 0.981
8 | Cn1cnc(CCNC(=O)C[C@H]2CC[C@H]3[C@@H](COC[C@@H](O)CN3C(=O)Nc3ccc(Cl)cc3)O2)c1 | inactive: 0.953
9 | C[C@H](CO)N1C[C@H](C)[C@H](CN(C)C(=O)Nc2cccc3ccccc23)OCc2cnnn2CCCC1=O | inactive: 1.01
10 | COc1ccc(CN(C)C[C@H]2OCCCC[C@@H](C)Oc3ccc(NC(=O)CCCCCC(=O)Nc4ccccc4N)cc3C(=O)N([C@H](C)CO)C[C@@H]2C)cc1 | inactive: 0.978
11 | C[C@@H]1CCCCO[C@H](CN(C)C(=O)CCC(F)(F)F)[C@H](C)CN([C@@H](C)CO)C(=O)c2cc(NS(=O)(=O)c3cccs3)ccc2O1 | inactive: 0.995
12 | O=c1[nH]c(=S)[nH]nc1O | inactive: 1.02
13 | COc1cccc(-c2ccc3c(c2)O[C@@H](CN(C)C(=O)C2CCC2)[C@@H](C)CN([C@H](C)CO)S3(=O)=O)c1 | inactive: 1.02
14 | C[C@@H]1CCCCO[C@@H](CN(C)C(=O)Nc2cccc3ccccc23)[C@H](C)CN([C@H](C)CO)C(=O)c2cc(NS(=O)(=O)c3ccc(Cl)cc3)ccc2O1 | inactive: 1.04
15 | Cl.O=C(O)C=Cc1ccc(Cn2ccnc2)cc1 | inactive: 1.12
16 | COc1ccc(NC(=O)N(C)C[C@H]2Oc3ccc(NC(=O)Cn4cnnn4)cc3C(=O)N([C@H](C)CO)C[C@H]2C)cc1 | inactive: 0.982
17 | COc1cccc(C(=O)Nc2ccc3c(c2)C(=O)N(C)[C@H]2CC[C@@H](CC(=O)NCC4CC4)O[C@@H]2CO3)c1 | inactive: 1.01
18 | C[C@@H]1CN([C@H](C)CO)C(=O)c2cc(Br)cnc2O[C@@H]1CN(C)S(=O)(=O)c1ccccc1 | inactive: 0.986
19 | CCCN1C[C@@H](C)[C@H](OC)CN(C)C(=O)c2ccc(NS(=O)(=O)c3cn(C)cn3)cc2OC[C@@H]1C | inactive: 1
20 | C[C@@H]1CCCCO[C@@H](CN(C)Cc2ccc(C(=O)O)cc2)[C@H](C)CN([C@H](C)CO)C(=O)c2cc(NC(=O)Cc3ccccc3)ccc2O1 | inactive: 0.95
21 | COc1ccc(S(=O)(=O)N(C)C[C@@H]2OCCCC[C@H](C)Oc3ccc(NC(=O)Nc4ccc(C(F)(F)F)cc4)cc3C(=O)N([C@@H](C)CO)C[C@H]2C)cc1 | inactive: 1.04

Row | SMILES | relative growth
22 | O=C(O)C=C(O)C(=O)O | inactive: 1.02
23 | COC1=CC(=O)c2ccccc2C1=O | inactive: 0.885
24 | C[C@H](CO)N1C[C@H](C)[C@@H](CN(C)S(=O)(=O)c2cn(C)cn2)Oc2c(NS(=O)(=O)c3ccc(F)cc3)cccc2C1=O | inactive: 1.01
25 | CC(C)CC#Cc1ccc2c(c1)O[C@H](CN(C)S(=O)(=O)c1ccc(F)cc1)[C@H](C)CN([C@H](C)CO)S2(=O)=O | inactive: 1.04
26 | C[C@@H]1CN([C@H](C)CO)C(=O)c2cccc(NC(=O)Nc3ccccc3)c2O[C@@H]1CN(C)Cc1ccc(C(=O)Nc2ccccc2N)cc1 | inactive: 1.02
27 | COc1ccc(S(=O)(=O)N(C)C[C@@H]2Oc3ncc(C#CC4(O)CCCC4)cc3C(=O)N([C@H](C)CO)C[C@H]2C)cc1 | inactive: 1.01
28 | COc1ccc(CCN2C(=O)[C@@]3(Cc4ccccc42)c2ccccc2C(=O)N(Cc2ccccc2)[C@H]3c2ccc(COC(=O)NCCCCCC(=O)NO)cc2)cc1 | inactive: 0.992
29 | O=C(C[C@H]1C[C@H]2c3cc(NC(=O)Nc4ccccc4F)ccc3O[C@H]2[C@@H](CO)O1)NCc1ccc(Oc2ccccc2)cc1 | inactive: 1.01
30 | Cc1noc(C)c1NC(=O)N(C)C[C@H]1OCCCC[C@H](C)Oc2ccc(NC(=O)Nc3ccc4c(c3)OCO4)cc2C(=O)N([C@H](C)CO)C[C@@H]1C | inactive: 1.01
31 | C[C@H](CO)N1C[C@H](C)[C@H](CN(C)S(=O)(=O)c2ccc(F)cc2)Oc2ncc(C#Cc3cccc(F)c3)cc2C1=O | inactive: 1.01
32 | CSc1c(-c2ccc(Cl)cc2)[nH]c2ccccc12 | inactive: 0.981
33 | O=c1cc(-c2ccccc2O)oc2ccc(O)cc12 | inactive: 0.99
34 | CC(C)CC#Cc1ccc2c(c1)O[C@H](CN(C)C(=O)c1cccnc1)[C@@H](C)CN([C@H](C)CO)S2(=O)=O | inactive: 0.991
35 | COCC#Cc1ccc2c(c1)O[C@@H](CN(C)C(=O)C1CCCCC1)[C@@H](C)CN([C@H](C)CO)S2(=O)=O | inactive: 0.999
36 | C[C@@H]1CN([C@@H](C)CO)C(=O)c2cc(NS(C)(=O)=O)ccc2O[C@@H]1CN(C)S(=O)(=O)c1ccc(Cl)cc1 | inactive: 0.997
37 | C[C@@H]1CN([C@@H](C)CO)C(=O)c2cc(NS(C)(=O)=O)ccc2O[C@@H]1CN(C)S(=O)(=O)c1ccc(F)cc1 | inactive: 1.01
38 | COCC#Cc1ccc([C@H]2[C@H](CO)N3C(=O)CN(C(=O)c4cccnc4)C[C@@H]23)cc1 | inactive: 0.996
39 | COCCNC(=O)C[C@H]1CC[C@@H]2[C@H](COC[C@@H](O)CN2C(=O)Nc2ccc3c(c2)OCO3)O1 | inactive: 1.01
40 | COc1cccc(S(=O)(=O)Nc2ccc3c(c2)[C@H]2C[C@H](CC(=O)NC4CCCCC4)O[C@@H](CO)[C@H]2O3)c1 | inactive: 0.985
41 | CC[C@H](C)[C@H]1O[C@]2(C=C[C@@H]1C)C[C@@H]1C[C@@H](C/C=C(\C)[C@@H](O[C@H]3C[C@H](OC)[C@@H](O[C@H]4C[C@H](OC)[C@@H](NC(C)=O)[C@H](C)O4)[C@H](C)O3)[C@@H](C)/C=C/C=C3\CO[C@@H]4[C@H](O)C(C)=C[C@@H](C(=O)O1)[C@]34O)O2 | inactive: 0.925
42 | COC(=O)CCC(=O)CN | inactive: 1.01

Row | SMILES | relative growth
43 | COc1ccc(cc1)S(=O)(=O)N1C[C@]2(C1)CN([C@@H](CO)c1c2c2ccc(cc2n1C)OC)C(=O)c1cccnc1 | inactive: 1.01
44 | Cc1noc(C)c1S(=O)(=O)Nc1ccc2c(c1)CC(=O)N([C@@H](C)CO)C[C@@H](C)[C@H](CN(C)Cc1ccc3c(c1)OCO3)O2 | inactive: 1.03
45 | CN1CCN(C(=O)C[C@@H]2CC[C@H]3[C@@H](COC[C@@H](O)CN3Cc3ccc(Oc4ccccc4)cc3)O2)CC1 | inactive: 0.977
46 | CC1(C)S[C@@H]2[C@H](NC(=O)C3(N)CCCCC3)C(=O)N2[C@H]1C(=O)O | inactive: 1
47 | COc1cccc(OC)c1OCCNCCO | inactive: 0.999
48 | Clc1ccc([C@@H](c2ccccc2Cl)C(Cl)Cl)cc1 | inactive: 0.975
49 | O=C(C[C@H]1CC[C@H](NC(=O)C2CC2)[C@@H](CO)O1)NCCCN1CCOCC1 | inactive: 0.978
50 | CCSC1=C(C#N)C(=O)N[C@@H](CO)S1 | inactive: 0.987
51 | COc1ccc([Si](C)(C)[C@@H]2[C@@H](CC(=O)N3Cc4ccccc4C[C@H]3CO)O[C@]3(C(=O)N(Cc4cccc(N5CCC5=O)c4)c4ccccc43)[C@H]2C)cc1 | inactive: 1.03
52 | COc1ccc(CNC(=O)C[C@@H]2C[C@H]3c4cc(NC(=O)NC5CCCC5)ccc4O[C@H]3[C@@H](CO)O2)cc1 | inactive: 0.998
53 | C[C@@H]1CN([C@H](C)CO)C(=O)c2cc(C#Cc3cccnc3)cnc2O[C@H]1CN(C)S(=O)(=O)c1ccccc1F | inactive: 1
54 | N#C[C@@H]1[C@@H](c2ccc(C#Cc3ccccn3)cc2)[C@H](CO)N1C(=O)CN1CCOCC1 | inactive: 0.988
55 | C[C@@H]1CN([C@@H](C)CO)C(=O)c2cc(NS(=O)(=O)c3ccc(F)cc3)ccc2O[C@@H](C)CCCCO[C@H]1CN(C)Cc1ccc2c(c1)OCO2 | inactive: 1.01
56 | C[C@@H]1CN([C@@H](C)CO)C(=O)c2cc(NC(=O)Cc3cn(C)c4ccccc34)ccc2O[C@@H]1CN(C)C(=O)Nc1cccc2ccccc12 | inactive: 1.02
57 | CC(C)N1CC=C[C@@]23O[C@@H]4C=CCOC(=O)[C@@H]4[C@H]2C(=O)N([C@@H](C)CO)[C@@H]3C1=O | inactive: 0.97
58 | CC(C)(C)[S@](=O)N1Cc2cc(C(=O)NCc3ccccn3)nc(-c3cccc(-c4ccccc4F)c3)c2[C@@H]1CCO | inactive: 1.02
59 | C[C@H](CO)N1C[C@H](C)[C@@H](CN(C)S(=O)(=O)c2ccc(F)cc2)Oc2c(NC(=O)C3CC3)cccc2C1=O | inactive: 0.984
60 | C[C@H](CO)N1C[C@H](C)[C@@H](CN(C)Cc2ccc(-c3ccccc3)cc2)Oc2ccc(NC(=O)Nc3ccc(F)cc3)cc2C1=O | inactive: 0.952
61 | C=C/C=C/[C@@H]1C(=C)CN2[C@H]1[C@H](Cc1ccccc1)OC(=O)[C@@H]2Cc1ccc(-n2cc(-c3cccc(/C=C/C(=O)NO)c3)nn2)cc1 | inactive: 0.999
